{"source": "PubChem BioAssay AID686970", "about": "(National Center for Advancing Translational Sciences (NCATS), 2013)", "note": "Screen size: about 360,000 compounds; about 6,000 (1.7%) were called active. The shares of active, inactive and inconclusive entries below differ from those in the screen. The call rests on the fitted dose curve; in most records, active means well fitted cell-killing curve with a large enough effect; inconclusive means small, poorly fitted or top-dose-only effect, or effect the other way; inactive means flat fitted curve, though single readings scatter. No potency is given beside an inconclusive call; the fits are too rough. Potency means the concentration at half of the fitted maximal effect; tags describe the fitted curve by direction and shape."}
{"experiment": "qHTS for induction of synthetic lethality in tumor cells producing 2HG: qHTS for the HT-1080-NT fibrosarcoma cell line; further: nearly all actives have a fitted effect of over 55% in size", "details": "HT-1080-NT fibrosarcoma viability, CellTiter-Glo ATP luminescence, 48 h; activity, negative = less viability: at 46.1 µM (top of the series) unless noted", "excerpt": "Unbiased genomic sequencing for 22 glioma genomes found recurrent mutation of IDH1 on chromosome 2q33, a gene encoding the cytosolic isoform of IDH1 associated with the tricarboxylic acid cycle (TCA) that catalyzes the oxidative decarboxylation of isocitrate, yielding alpha-ketoglutarate and CO2 via NADP+ to NADPH conversion. Subsequent studies confirmed the recurrent IDH mutations in up to 70% of secondary gliomas and in 10% of AML cases. In addition, the somatic mutation of cancer-associated IDH1 is a point mutation resulting in various amino-acid substituents at Arginine132 (IDH1 R132), a key residue found in the enzyme's active site that when mutated, results in the loss-of-function in metabolizing isocitrate but confers a gain-of-function to produce the oncometabolite 2-hydroxyglutarate (2HG). This in effect defines IDH1 as an oncogene and provides an extraordinary opportunity to discover chemical probes against mutant IDH1 that may translate into much needed new therapies for glioma and AML patients.\nThis assay aims to perform a synthetic lethal screen for chemical probes specific for 2HG-producing tumor cells using matched paired cell lines (1) HT-1080-NT fibrosarcoma cell line that overproduces 2HG and (2) HT-1080-IDH1KD cell line which has IDH1 expression knocked-down. Desirable compounds are toxic to the NT fibrosarcoma cells but not to the IDH1KD cell line. The data in this AID corresponds to the results of the qHTS against the HT-1080-NT fibrosarcoma cell line.\n[1] Dang L, Jin S, Su SM. IDH mutations in glioma and acute myeloid leukemia. Trends of Mol Med. 2010; 16(9): 387-97.\n[2] Dang L et al. Cancer-associated IDH1 mutations produce 2-hydroxyglutarate. Nature. 2010; 465(7300):966.\nNIH Molecular Libraries Probe Production Centers Network [MLPCN]\nNIH Chemical Genomics Center [NCGC]\nAssay Submitter (PI): Lenny Dang Ph.D., Agios Pharmaceuticals\nSuspensions of trypsinized HT-1080-NT cells were dispensed into white, tissue culture-treated, solid 1536-well plates at 5uL/well (750 cells/well final concentration) in RPMI medium supplemented with 5% FBS. Plates were incubated at 37 degrees C for 2 hours, after which 23 nL of compounds or DMSO were delivered to each well using a pin tool. Plates were then incubated at 37 degrees C for an additional 48 hours. CellTiter-Glo viability reagent (Promega) was dispensed into wells (2.5uL/well) and incubated at room temperature for 10 minutes. The plates were measured on a PerkinElmer ViewLux plate reader for luminescent signal (clear filter, 1 sec exp). DMSO-treated control wells and media-only (no cells) control wells were used to normalize %Activity of identified toxic compounds; DMSO-treated wells corresponded to 0%Activity (100% viability), while media-only controls were used to normalize 100%Activity (0% viability).\nConcentration-response curves were fitted to the signals arising from the resulting luminescence. The concentration-effect curves were then classified based on curve quality (r2), response magnitude and degree of measured activity, and compounds were subsequently categorized based on their curve class."}
{"smiles": "Cc1nc2ccccc2c2oc(C(=O)Nc3ccc(C(C)C)cc3)cc12", "Potency": "inconclusive [cytotoxic, single point]"}
{"smiles": "COc1ccc(-c2nn(-c3ccccc3)cc2/C=C2/SC(=S)N(CCC(=O)O)C2=O)c(C)c1", "activity, negative = less viability": "inconclusive: -25.2% [cytotoxic]"}
{"smiles": "CCN(CC(=O)Nc1c(F)cccc1F)C(=O)CCOc1ccccc1", "Potency": "inactive"}
{"smiles": "O=C(C1CC(=O)N(c2ccc(F)cc2)C1)N1CCCCC1", "note": "(stereo unspecified)", "Potency": "inconclusive [rising, single point]"}
{"smiles": "COc1cccc(C(=O)Nn2cnnc2)c1", "Potency": "inconclusive [rising, single point]"}
{"smiles": "CC[n+]1ccc(/C=C2\\Sc3ccccc3N2CCCS(=O)(=O)[O-])c2ccccc21", "Potency": "inactive"}
{"smiles": "Cc1nn(Cc2ccc(Cl)cc2)c(C)c1NC(=O)Cn1nc([N+](=O)[O-])c(Cl)c1C", "Potency": "inconclusive [cytotoxic, single point]"}
{"smiles": "NCCCC[C@@H]1NC(=O)c2cc([N+](=O)[O-])cc(I)c2SC[C@@H](C(=O)NCC(N)=O)NC(=O)CNC1=O", "Potency": "inactive"}
{"smiles": "C=C1CCC[C@]2(C)C[C@H]3OC(=O)C(CNC(C)CCCC(C)C)[C@H]3CC12", "note": "(stereo partly specified)", "Potency": "inconclusive [cytotoxic, single point]"}
{"smiles": "OCCSc1nncn1/N=C/c1c[nH]c2ccccc12", "Potency": "inactive"}
{"smiles": "COc1ccc(C(NC(=O)C2CCN(CCOc3ccc(Cl)cc3Cl)CC2)c2ccccn2)cc1", "note": "(stereo unspecified)", "Potency": "active: 23.1 µM"}
{"smiles": "C[C@@H]1CN([C@H](C)CO)C(=O)c2cccc(NC(=O)Nc3ccc(C(F)(F)F)cc3)c2O[C@H]1CN(C)S(=O)(=O)c1cccs1", "Potency": "inconclusive [cytotoxic, single point]"}
{"smiles": "O=C1C(=C(I)I)c2ccccc2-c2ccccc21", "Potency": "inconclusive [cytotoxic, single point]"}
{"smiles": "O=C(/C=C/c1cccc2ccccc12)c1ccncc1", "Potency": "inconclusive [cytotoxic, single point]"}
{"smiles": "CN(C1=C(NC(=O)c2ccccc2)C(=O)c2ccccc2C1=O)C1CCS(=O)(=O)C1", "note": "(stereo unspecified)", "Potency": "inconclusive [cytotoxic, single point]"}
{"smiles": "COc1cc(C)nn1-c1ccc(Cl)cc1", "Potency": "inconclusive [rising, single point]"}
{"smiles": "Cc1ccccc1OCC(=O)NNC(=O)Nc1ccc(Cl)cc1", "Potency": "active: 6.51 µM"}
{"smiles": "Cc1cccc(OCC(O)CN2C(C)(C)CC(O)CC2(C)C)c1", "note": "(stereo unspecified)", "Potency": "inactive"}
{"smiles": "Cc1oncc1C(=S)Nc1ccccc1", "Potency": "inconclusive [cytotoxic, single point]"}
{"smiles": "CC1CCCN(c2ccc(C(=O)Nc3cccnc3)cc2[N+](=O)[O-])C1", "note": "(stereo unspecified)", "Potency": "inconclusive [cytotoxic, single point]"}
{"smiles": "CCC(CC)C(=O)N(C)c1c(C)nc2c(OCc3cc(Cl)cc(Cl)c3)cccn12", "Potency": "inconclusive [cytotoxic, single point]"}
{"smiles": "CCOC(=O)C1=NS(=O)(=O)NC(C)=C1", "Potency": "inactive"}
{"smiles": "COc1ccc(-c2cc(C(=O)NCCN3CCOCC3)c3ccccc3n2)cc1", "Potency": "inactive"}
{"smiles": "Fc1ccc(-n2cc(CNCCc3ccccn3)c(-c3ccccc3Cl)n2)cc1", "Potency": "active: 20.6 µM"}
{"smiles": "CCCCNc1ccc(C(=O)OCCOCCOCCOCCOCCOCCOCCOCCOCCOC)cc1", "Potency": "inconclusive [rising, single point]"}
{"smiles": "COc1ccccc1OCCCN1CCC(C(O)(c2ccccc2)c2ccccc2)CC1", "Potency": "active: 20.6 µM"}
{"smiles": "Cc1cc(C)c(-c2c(N)cc(Br)cc2Br)c(N)c1", "Potency": "inconclusive [cytotoxic, single point]"}
{"smiles": "O=C(NNC(=O)c1csc(-c2ccccc2)n1)c1ccccc1", "Potency": "inconclusive [cytotoxic, single point]"}
{"smiles": "CC(O)CN=c1cc(-c2ccccc2)oc2ccc(Cl)cc12", "note": "(stereo unspecified)", "Potency": "inconclusive [cytotoxic, single point]"}
{"smiles": "CCOc1c(CNCCCSc2nc(C)cc(C)n2)cccc1OC", "Potency": "inconclusive [cytotoxic, single point]"}
{"smiles": "COc1ccccc1-c1cc(C(=O)Nc2cccnc2)no1", "Potency": "active: 0.316 µM"}
{"smiles": "CN1/C(=C/C(=O)C2CC2)C(C)(C)c2ccccc21", "Potency": "inactive"}
{"smiles": "COc1ccc(CCNc2ncnc3sc(C)cc23)cc1OC", "Potency": "inconclusive [cytotoxic, single point]"}
{"smiles": "COc1ccc(C(CCNCc2ccc(N(C)C)cc2)c2ccccc2OC)cc1", "note": "(stereo unspecified)", "Potency": "inconclusive [cytotoxic, single point]"}
{"smiles": "CCOC(=O)Cc1n[nH]c(=O)c2ccccc12", "Potency": "inactive"}
{"smiles": "CN(CC(=O)Nc1cccc(S(=O)(=O)N(C)c2ccccc2)c1)Cc1cccs1", "Potency": "inactive"}
